Measured values reported in patent US20180177872A1, “Combination of PD-1 antagonist with an EGFR inhibitor” (priority 2015, published 2018).

T1: mouse PD-1 (Mus musculus, UniProt Q02242)
T1 sequence (Q02242 25-288): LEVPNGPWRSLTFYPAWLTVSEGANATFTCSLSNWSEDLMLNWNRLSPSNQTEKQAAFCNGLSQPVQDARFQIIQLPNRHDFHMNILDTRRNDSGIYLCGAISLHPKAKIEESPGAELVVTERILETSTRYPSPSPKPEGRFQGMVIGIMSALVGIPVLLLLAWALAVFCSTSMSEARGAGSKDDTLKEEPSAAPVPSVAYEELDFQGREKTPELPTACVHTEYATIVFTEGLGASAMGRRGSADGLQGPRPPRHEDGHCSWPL


Assays:
[1] = biological target: T2, human PD-1-expressing 300.19 cells (Homo sapiens, UniProt Q15116); test: FACS binding on human PD-1-expressing 300.19 cells; conditions: FACS analysis; compared to a human IgG4 isotype control
T2 construct: expressed in transfected cells; host or cells: 300.19 cells
Experimental: The binding of the same humanized anti-PD-1 antibody on human PD-1-expressing 300.19 cells was measured using FACS analysis.

[2] = test system: cynomolgus PD-1-expressing 300.19 cells; test: Binding to cynomolgus PD-1-expressing 300.19 cells
mouse PD-1 = biological target: T1, mouse PD-1; test: Cross-reactivity with mouse PD-1; type: binding
human PD-1 protein = human PD-1 protein (Homo sapiens, UniProt Q15116); test: Biacore binding on human PD-1 protein; conditions: Biacore method; for Kd: rate constant
Experimental: The binding of an exemplary humanized anti-PD-1 antibodies including Clone B and Clone E as shown in Table 1 on human PD-1 protein was measured using Biacore method.

[3] = biological target: T3, PD-L1 binding to human PD-1 (Homo sapiens, UniProt Q15116); test: Blocking of PD-L1 binding on PD-1-expressing 300.19 cells; type: cell-based
T3 construct: expressed in transfected cells; host or cells: 300.19 cells
Experimental: The blocking capacity of the mAbs was evaluated in a competition binding assay using a constant concentration of PD-L1-huIgG1 Fc fusion protein or PD-L2-huIgG1 Fc fusion protein, serial dilutions of the mAbs to be tested, and PD-1-expressing 300.19 cells.
Incubation was at 4° C. for 30 min. Bound ligand fusion proteins were detected with PE-conjugated F(ab′)2 fragment of goat anti-human IgG which doesn't recognize IgG4 mAbs (Southern Biotech 2043-09), and flow cytometry.

cynomolgus PD-1 protein = test: Biacore binding to cynomolgus PD-1
[4] = biological target: T4, PD-L2 binding to human PD-1 (Homo sapiens, UniProt Q15116); test: Blocking of PD-L2 binding on PD-1-expressing 300.19 cells; type: cell-based
T4 construct: expressed in transfected cells; host or cells: 300.19 cells

[5] = Iso-electric focussing (Novex IEF) analysis; type: physicochemical; conditions: estimated from staining positions against the IEF 3-10 marker
Experimental: Non-reduced samples of Protein A purified antibody were electrophoresed as described below.
5 μg of Protein A purified samples were electrophoresed on a 1.0 mm Novex pH 3-10 gradient gel (Invitrogen, EC66552BOX) using manufacturers recommended running conditions. A 10 μl aliquot of IEF pH 3-10 markers (Invitrogen, 39212-01) was included on the gel. Once electrophoresed, gels were fixed with 10% TCA solution for 30 min and then stained with InstantBlue (TripleRed, ISB01L) over night at room temperature. Images of the stained gels were analysed on a BioSpectrum Imaging System (UVP).

Sequence of human PD-1 protein (Q15116 25-288): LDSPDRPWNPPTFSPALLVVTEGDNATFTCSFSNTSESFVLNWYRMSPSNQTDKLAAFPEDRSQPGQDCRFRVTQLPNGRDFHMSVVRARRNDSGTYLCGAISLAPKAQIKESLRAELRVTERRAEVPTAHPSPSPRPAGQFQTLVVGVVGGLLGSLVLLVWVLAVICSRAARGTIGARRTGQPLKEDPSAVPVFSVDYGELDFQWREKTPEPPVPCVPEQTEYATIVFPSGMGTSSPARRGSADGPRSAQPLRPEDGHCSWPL
T2 sequence (Q15116 25-288): as above
T3 sequence (Q15116 25-288): as above
T4 sequence (Q15116 25-288): as above

| Molecule | binding to human PD-1 [1] | affinity to cynomolgus PD-1-expressing 300.19 cells [2] | cross-reactivity with mouse PD-1 (mouse PD-1) | Ka (human PD-1 protein) [M⁻¹ s⁻¹] | Kd (human PD-1 protein) [s⁻¹] | blocking of PD-L1 binding [3] | affinity to cynomolgus PD-1 protein (cynomolgus PD-1 protein) | blocking of PD-L2 binding [4] | Basic charge isoforms (pI) [5] | pI of predominant charge isoform [5] |
| --- | --- | --- | --- | --- | --- | --- | --- | --- | --- | --- |
| exemplary humanized anti-PD-1 antibody: exemplary humanized anti-PD-1 antibody (human IgG4) of Example 1; clone not specified (antibody) heavy: EVQLVQSGAEVKKPGESLRISCKGSGYTFTTYWMHWVRQATGQGLEWMGNIYPGTGGSNFDEKFKNRVTITADKSTSTAYMELSSLRSEDTAVYYCTRWTTGTGAYWGQGTTVTVSSASTKGPSVFPLAPCSRSTSESTAALGCLVKDYFPEPVTVSWNSGALTSGVHTFPAVLQSSGLYSLSSVVTVPSSSLGTKTYTCNVDHKPSNTKVDKRV[human IgG4 Fc with S228P (EU numbers) not spelt out] light: EIVLTQSPATLSLSPGERATLSCKSSQSLLDSGNQKNFLTWYQQKPGQAPRLLIYWASTRESGVPSRFSGSGSGTDFTFTISSLEAEDAATYYCQNDYSYPYTFGQGTKVEIKRTVAAPSVFIFPPSDEQLKSGTASVVCLLNNFYPREAKVQWKVDNALQSGNSQESVTEQDSKDSTYSLSSTLTLSKADYEKHKVYACEVTHQGLSSPVTKSFNRGEC | high affinity | high affinity | not cross-reactive | 278000 | 0.000213 | blocked | high affinity | blocked |  |  |
| Clone B: humanized anti-PD-1 antibody BAP049 clone; sequences in Table 1 (antibody) heavy: EVQLVQSGAEVKKPGESLRISCKGSGYTFTTYWMHWVRQATGQGLEWMGNIYPGTGGSNFDEKFKNRVTITADKSTSTAYMELSSLRSEDTAVYYCTRWTTGTGAYWGQGTTVTVSSASTKGPSVFPLAPCSRSTSESTAALGCLVKDYFPEPVTVSWNSGALTSGVHTFPAVLQSSGLYSLSSVVTVPSSSLGTKTYTCNVDHKPSNTKVDKRV[human IgG4 Fc with S228P (EU numbers) not spelt out] light: EIVLTQSPATLSLSPGERATLSCKSSQSLLDSGNQKNFLTWYQQKPGKAPKLLIYWASTRESGVPSRFSGSGSGTDFTFTISSLQPEDIATYYCQNDYSYPYTFGQGTKVEIKRTVAAPSVFIFPPSDEQLKSGTASVVCLLNNFYPREAKVQWKVDNALQSGNSQESVTEQDSKDSTYSLSSTLTLSKADYEKHKVYACEVTHQGLSSPVTKSFNRGEC |  |  |  | 278000 | 0.000213 |  |  |  | 7.8 | 7.75 |
